Experimental data: the supplement of paper PMC11417369
± gives the standard deviation of the averaged measurements. The list shows a part of the results.

test system: PfAP2-LT AP2 domain (GST-tagged); test: gcPBM binding intensity (ln(normalized median fluorescence intensity)); higher = stronger DNA binding
Summary of the method: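 Using an Agilent 4 × 180k array, primer-extended double-stranded 36-bp intergenic genomic probes and negative controls were exposed for 1 h to GST-fused P. falciparum DNA-binding domains expressed in E. coli. Binding was carried out in 1× PBS with 1% milk, 0.2 mg/ml BSA, 0.5% salmon testes DNA and 0.03% Triton X-100, and protein was detected with Alexa488 anti-GST antibody and a 488 nm scan. Binding intensity is the highest Masliner-normalised natural-log median intensity across replicate spots of either probe orientation.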

In order of rising “gcPBM binding intensity (ln)” value:
1. TATTTAATAAAGAAATAAAAATAAAGAAAAAAAAAA [CACACA_negctrl_site74]  8.29 ± 0.57
2. TTTTTTTTTTTTTTTTTTTTCATTCAATTATATTTA [CACACA_negctrl_site712]  8.32 ± 0.45
3. GTTTAAAAAAATTATCAACTTTAAAAAGGTAACATT [XGTACX_negctrl_site203]  8.41 ± 0.32
4. ATTTGTAATTTATATTCACACATTCAAAAAAATGAG [CACACA_site6057]  8.41 ± 0.29
5. ACCAAAAAAAAAAAAAAAAAAATATACATATATATA [GTGCAC_negctrl_site582]  8.47 ± 0.48
6. TGGTATTGAATTTTTTGTACACATAAAATATATATA [XGTACX_site7614]  8.54 ± 0.33
7. GTGCCATTTAAAAAATGTACAAGAAAATGTTCATCA [XGTACX_site2865]  8.54 ± 0.44
8. ATATAAAAATTAAAATGTACATATCTTATTATAATA [XGTACX_site983]  8.56 ± 0.54
9. TATTTTTTTATTTGTGCATGTCATATTTAAACATAA [TGCATGCA_site1006]  8.58 ± 0.4
10. TAATAAAATAATATCACACATATTTATATATATTAT [CACACA_site5814]  8.63 ± 0.44
11. GTATTATATTTCAACTGTACGTAAAACTATTAAAAT [XGTACX_site3679]  8.63 ± 0.3
12. TAAAATGTAATCTGAACACACATATTTTTTTAATAT [CACACA_site1768]  8.68 ± 0.45
13. AATTATTTATCGGAATGTACATAAAAACATATGTAT [XGTACX_site7443]  8.7 ± 0.4
14. ACATATGTTAAAAAGGCATGCATTCTTTTTATTTTA [TGCATGCA_site1043]  8.72 ± 0.43
15. GCTTATAAAGGCAGAAGTACTGTATTCCTATATATA [XGTACX_site8865]  8.72 ± 0.43
16. ATATTTTGTTTTATAGTGCACATGGGCATATATTAA [GTGCAC_site9435]  8.74 ± 0.39
17. AAAAAAAAAAAAAAATGTACATATGGTATGCATATA [XGTACX_site3225]  8.77 ± 0.52
18. TTATCACATAAACGATGTACGTACTAGGTTTTTTTT [XGTACX_site2147]  8.79 ± 0.42
19. TATAAATTTGTTGTTGCATGCAGTATACCAAAAAAA [TGCATGCA_site445]  8.84 ± 0.4
20. TCCTTTATTTTTAAAGTGCATATACATGTACATTAT [GTGCAC_site9445]  8.85 ± 0.41
21. TTTACTTTTTTTTCTTGTACTCATACATACTATCAT [XGTACX_site4919]  8.85 ± 0.54
22. ATATTTTATTATTGTTGTACTTTTTTTTTTTGATTG [XGTACX_site4091]  8.85 ± 0.49
23. TATATACAAAATGCCTGTACATATATATTTATTTAT [XGTACX_site761]  8.85 ± 0.35
24. GGCAACAATGTAGATTGTACATATGAATTTTACAAT [XGTACX_site5655]  8.86 ± 0.42
25. TGAATAATATACATACGTACATACATATATATAATA [XGTACX_site1302]  8.87 ± 0.56
26. AACTAATATAATAATACATGCACATAAAAATATATA [TGCATGCA_site606]  8.9 ± 0.4
27. AATAATATATATATAATACACACTATTATAATCACA [CACACA_site1310]  8.91 ± 0.38
28. TTATACAAATTCATGGGTACAAACAAACATATATCA [XGTACX_site6237]  8.94 ± 0.35
29. TTCATTTAGCAAGAATGTACTTATATATATATATAT [XGTACX_site3401]  8.95 ± 0.085
30. TTTTAATGTACCAGTGTGCACCTTGCGTACATATTA [GTGCAC_site9957]  8.99 ± 0.42
31. CAGCTCTTAAGAATTACACACATATACACATATATA [CACACA_site7524]  9.04 ± 0.38
32. AAAAATATAATATAATGTACACAAAAAAAAAAAAAT [XGTACX_site4914]  9.04 ± 0.49
33. TTTTTTTTGGTATAATGTACATTTTCACTTATGTAT [XGTACX_site3259]  9.05 ± 0.58
34. AAAGGAATATAATGATGTACACAAATATATATACAT [XGTACX_site5347]  9.05 ± 0.46
35. AAATTTCAATAATCTACACACATAAAAAAACAAAAG [CACACA_site1702]  9.05 ± 0.42
36. AATAGCCCATATGGAATACACACTGAAAATAAAAAA [CACACA_site3373]  9.07 ± 0.57
37. CAACATAAAAATTAAGCATGCAATAGACTTGTGTTG [TGCATGCA_site417]  9.08 ± 0.41
38. GTAGTAAATAGGAGGATGCATATGGCACACATTATA [TGCATGCA_negctrl_site59]  9.11 ± 0.64
39. AAAATATATACTCCATCACACACCAAAAAGAAAAAA [CACACA_site2542]  9.15 ± 0.41
40. GCAACACAAAAAATTACACACAAAAAAAATATATTA [CACACA_site916]  9.18 ± 0.52
41. GAAGAAAAAAAATATACACACATACGATCATACATA [CACACA_site5227]  9.21 ± 0.33
42. AATAATATCATTTAGACACACACTCTTACAATATGT [CACACA_site8832]  9.21 ± 0.38
43. CTTTCTTATTTGAACGCATGCATTTGTACCTTTTAT [TGCATGCA_site671]  9.22 ± 0.43
44. ACCTACATAACATACACACGCATATATATAATTTTA [CACACA_site2847]  9.22 ± 0.33
45. ATATATATTATCATTGTGCACTTATTTATATACCTT  9.31 ± 0.47
46. ATACATAAATACAAACGTACATACATACATACATAC [XGTACX_site7824]  9.35 ± 0.35
47. ATTCAAAAGATGTATACACACATGTGTATAATATAA [CACACA_site7197]  9.42 ± 0.37
48. TATACCTATAAATACACACACATATAAATAAATATA [CACACA_site6153]  9.43 ± 0.3
49. ATAAAGCCATACAATACACACATTTTACATGGGGGT [CACACA_site9072]  9.45 ± 0.099
50. ATTTTATTTTCTCACACACACATATATATATATATA [CACACA_site5781]  9.59 ± 0.21
51. AATAATAAAAAATATACACACATATATATATATATA [CACACA_site25]  9.6 ± 0.28
52. CAAAAAAATGTGAAGGCATGCAAATATGTAAAATAA [TGCATGCA_site921]  9.68 ± 0.67
53. CATGCAAAAAATTCCACACACACACCCACATATAAA [CACACA_site1229]  9.73 ± 0.16
54. TTGGCATACGGACACACACACACACCCAGACATATA [CACACA_site4492]  9.84 ± 0.18
55. CACGCATACGGACACACACACACACCGATATATATA [CACACA_site4521]  9.89 ± 0.33
56. ATAATATGAAAACACACACACACACTAATAAAAAAA [CACACA_site8617]  10.3 ± 0.16
57. ATAAAAAGGAAACACACACACACACCCATATATATA [CACACA_site904]  10.41 ± 0.042
